Results from article PMC4336329 (PLoS ONE, 2015).
The campaign covered roughly 310,000 compounds. About 2,200 (0.71%) showed an effect of 50% or more. Effects have a minus sign here. This is one part of the list.

target: human ether-à-go-go-related gene (hERG) potassium channel (human, UniProt Q12809); experiment: primary screen, population patch clamp on CHO cells stably expressing hERG
Sequence (Q12809 whole entry, looked up): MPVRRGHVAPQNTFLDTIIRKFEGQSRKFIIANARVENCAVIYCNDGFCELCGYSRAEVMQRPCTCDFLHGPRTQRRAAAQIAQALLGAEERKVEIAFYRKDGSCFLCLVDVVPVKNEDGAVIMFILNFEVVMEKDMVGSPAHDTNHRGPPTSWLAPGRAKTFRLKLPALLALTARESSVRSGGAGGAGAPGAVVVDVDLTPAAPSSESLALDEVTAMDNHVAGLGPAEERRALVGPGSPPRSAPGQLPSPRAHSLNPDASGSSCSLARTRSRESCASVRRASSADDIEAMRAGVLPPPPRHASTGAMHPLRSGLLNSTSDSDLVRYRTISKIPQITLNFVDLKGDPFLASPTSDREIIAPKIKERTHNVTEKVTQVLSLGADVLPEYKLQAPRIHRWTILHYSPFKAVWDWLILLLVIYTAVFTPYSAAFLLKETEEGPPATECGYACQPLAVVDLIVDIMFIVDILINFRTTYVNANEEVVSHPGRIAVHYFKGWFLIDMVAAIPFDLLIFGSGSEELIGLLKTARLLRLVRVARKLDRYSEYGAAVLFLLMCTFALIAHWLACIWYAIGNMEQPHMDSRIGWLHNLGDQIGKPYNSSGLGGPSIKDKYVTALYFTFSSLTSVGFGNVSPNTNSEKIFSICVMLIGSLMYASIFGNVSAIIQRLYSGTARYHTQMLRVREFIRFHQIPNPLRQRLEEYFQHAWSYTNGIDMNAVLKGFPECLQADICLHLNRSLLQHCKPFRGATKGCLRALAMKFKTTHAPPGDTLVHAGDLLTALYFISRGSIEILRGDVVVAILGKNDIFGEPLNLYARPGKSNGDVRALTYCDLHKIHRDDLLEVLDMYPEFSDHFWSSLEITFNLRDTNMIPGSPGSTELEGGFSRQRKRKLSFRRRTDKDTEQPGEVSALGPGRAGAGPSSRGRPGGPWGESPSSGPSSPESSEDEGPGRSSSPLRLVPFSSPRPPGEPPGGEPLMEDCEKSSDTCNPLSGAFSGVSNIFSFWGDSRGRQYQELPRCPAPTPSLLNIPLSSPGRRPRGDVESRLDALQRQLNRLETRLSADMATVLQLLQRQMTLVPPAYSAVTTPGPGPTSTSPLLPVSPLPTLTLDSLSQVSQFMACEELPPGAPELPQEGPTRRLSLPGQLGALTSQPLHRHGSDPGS

Row | SMILES | hERG current change (%, negative = inhibition) at 1uM [%]
1 | CCN(CC(=O)NCc1ccc(Cl)cc1)C(=O)CSc1ccc(Br)cc1 | -48.6
2 | CS(=O)(=O)N1N=C(c2cccs2)CC1c1ccccc1F (centres unmarked) | 1.33
3 | COc1ccc(-c2cc(C)no2)cc1S(=O)(=O)N(C)Cc1ccco1 | 14.3
4 | Cc1nn(CC(=O)NCc2ccc(Cl)cc2)c(C)c1[N+](=O)[O-] | 2.31
5 | CCCCn1nc2cc(C(=O)NCc3cc(C(F)(F)F)cc(C(F)(F)F)c3)ccc2c1OCC | 15.8
6 | CSc1nnc(CCCCCNC(=O)OC(C)(C)C)o1 | 14.1
7 | O=C(N/C=C\c1ccccc1)NCc1ccc(Cl)cc1 | 10.6
8 | C/C(=N\NC(=O)C(c1ccccc1)c1ccccc1)c1ccc(O)cc1 | 10.1
9 | Cc1ccc(C(C2=C(O)CC(C)(C)CC2=O)C2C(=O)CC(C)(C)CC2=O)s1 (centres unmarked) | 8.25
10 | COc1ccc(CN2CCSCC2)cc1C | 5.52
11 | O=C(CCCN1C(=O)S/C(=C\c2ccccc2)C1=O)NNC(=O)c1ccccc1O | 12.6
12 | CCN(CC)CCn1c(NCc2ccccn2)nc2ccccc21.Cl | -1.1
13 | COc1ccccc1OCC(=O)NNc1c2ccccc2nc2ccccc12 | 12.8
14 | N#CCc1nn(-c2ccc(Cl)cc2)c(N)c1C#N | 9.26
15 | CCOC(=O)c1[nH]c2cc(OC)c(OC)cc2c1NC(=O)CN1CCN(c2ccc(OC)cc2)C(C)C1 (centres unmarked) | 7.05
16 | COC(=O)CCC(=O)OC1(C)C(=O)C2=CN(c3ccccc3)C(c3ccc(OC)cc3)=CC2=C(Br)C1=O (centres unmarked) | 3.11
17 | O=C(CCNS(=O)(=O)c1cccs1)N1CCN(c2cccc(Cl)c2)CC1 | -0.0599
18 | CC1(C)Cc2c(C#N)c(SCC(=O)O)nc(N3CCOCC3)c2CO1 | 17.9
19 | COc1ccc(CNC(=O)COc2cc3c(c4oc(=O)cc(C)c24)CCC(C)(C)O3)cc1 | 12.6

Row | SMILES | hERG current change (%, negative = inhibition) at 1uM [%]
20 | COc1ccc(N2C(=O)CC(c3ccccc3)CC2=O)cc1 | 10.5
21 | COc1ccc(CCNC(=O)C2C3CCC(C3)C2C(=O)O)cc1OC (centres unmarked) | 14.5
22 | O=C(NCc1ccccc1)c1ccc2c(c1)OCCO2 | 5.28
23 | Cn1c(=O)c2c(nc(Oc3ccc(-c4ccccc4)cc3)n2C)n(C)c1=O | 9.66
24 | CCCC(=O)NC(=S)Nc1cccc(NC(=O)c2ccccc2)c1 | 5.48
25 | CC(=O)Nc1ccc2[nH]c3ccccc3c2c1 | 3.08
26 | COc1cc(Cl)ccc1OCc1cc(C(=O)NC2CCc3ccccc32)no1 (centres unmarked) | 8.95
27 | CS(=O)(=O)N(CC(=O)NCCSC1CCCCC1)c1cccc(F)c1 | 17.6
28 | O=c1c2ccccc2nc2n1CCC2 | 9.08
29 | Cc1onc(-c2ccccc2)c1C(=O)c1ccccc1 | 12.2
30 | O=S1(=O)CCOCCCN1Cc1cccc(F)c1 | 11
31 | Cc1ccc(-c2nnc(-c3ccccc3)o2)cc1Br | 7.85
32 | CCn1c(C)nc2c(C)[n+](CC(=O)c3ccc(Br)cc3)ccc21.[Br-] | 8.09
33 | CC1CCCN(S(=O)(=O)c2ccc(C(=O)Nc3sc4c(c3C(N)=O)CCN(C)C4)cc2)C1 (centres unmarked) | 11.5
34 | Cc1cc(C)c(NC(=O)CNC(=O)c2ccccc2SCC(=O)N2CCCC2)c(C)c1 | 12.2
35 | Cc1ccc(OCCN2CCN(C(=O)CCC(=O)Nc3nnc(C(C)C)s3)CC2)cc1 | 9.33
36 | CCN(C(=O)c1ccco1)c1nnc(-c2cccnc2)s1 | 13.4
37 | Cc1c(C(=O)Nc2ccccc2)c2cc(O)ccc2n1Cc1ccccc1 | 12.7
38 | COc1ccc(Cl)cc1NC(=O)[C@@]1(CC(=O)O)CC(/C=C/c2ccccc2)=NO1 | 12.8

Row | SMILES | hERG current change (%, negative = inhibition) at 1uM [%]
39 | CC1=Nc2ccccc2/C1=C/c1c(O)[nH]c(=O)[nH]c1=O | 12.5
40 | O=C(CCNC(=O)c1ccco1)Nc1ccccc1OC(F)F | 14.4
41 | CC(=O)Oc1ccccc1C(=O)Nc1ccccc1C(=O)N1CCCCC1 | -2.56
42 | Oc1ccc2oc3c(c2c1)CCCC3 | 4.95
43 | CC(C)C(NC(=O)c1ccc(C(C)(C)C)cc1)C(=O)Nc1ccc(N2CCOCC2)cc1 (centres unmarked) | -1.41
44 | Cc1ccc(S(=O)(=O)N2CCN(C(=O)[C@H](Cc3ccccc3)NC(=O)c3ccco3)CC2)cc1C | 1.89
45 | O=C(C[n+]1cc(-c2ccc(Cl)c(Cl)c2)n2c1CCC2)OCc1ccccc1.[Br-] | -2.26
46 | CC(=O)N(Cc1cc2c(C)cc(C)cc2[nH]c1=O)C1CCCCC1 | 15.3
47 | CC(C(=O)Nc1ccccc1-c1ccccc1)N1CCN(Cc2ccccc2)CC1 (centres unmarked) | -35.6
48 | Cc1onc(-c2ccccc2)c1C(=O)Nc1ccc(-c2nnc3n2CCCCC3)cc1 | 13
49 | CC(=O)Nc1ccc(S(=O)(=O)Nc2nc3ccccc3nc2-n2ccc(=NC(=O)c3ccc(F)cc3)cc2)cc1 | 8.97
50 | O=C(c1ccncc1)N1CCN(S(=O)(=O)c2cccc([N+](=O)[O-])c2)CC1 | 2.85
51 | O=C(CNC(=O)C1CCCCC1)NCc1ccco1 | 15
52 | CCC(=NCc1cc(OC)cc(OC)c1)c1c(O)[nH]c(=O)[nH]c1=O | 5.35
53 | O=C(COC(=O)c1ccc([N+](=O)[O-])cc1)NC1CCCC1 | 14.4
54 | O=C(NCC1CCN(C(=O)c2ccc([N+](=O)[O-])cc2)CC1)C(=O)Nc1ccccc1 | 5.27
55 | CCOc1ccc(/C=N/Nc2nncc(-c3ccccc3)n2)cc1OC | 3.8
56 | Cl.OC1(CNCc2ccccc2)C2CC3CC(C2)CC1C3 (centres unmarked) | 12.8
